From article PMC4336329 (PLoS ONE, 2015)
Out of some 310,000 compounds screened, about 14,000 (4.5%) showed an effect of 50% or more. Effects have a minus sign here. The list shows a part of the results.

These molecules were tested against human ether-à-go-go-related gene (hERG) potassium channel (human, UniProt Q12809) (assay: primary screen, population patch clamp on CHO cells stably expressing hERG).
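Also: peak tail current of the secondary pulse compared with the same well before compound.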

Chain of human ether-à-go-go-related gene (hERG) potassium channel (Q12809 whole entry, looked up): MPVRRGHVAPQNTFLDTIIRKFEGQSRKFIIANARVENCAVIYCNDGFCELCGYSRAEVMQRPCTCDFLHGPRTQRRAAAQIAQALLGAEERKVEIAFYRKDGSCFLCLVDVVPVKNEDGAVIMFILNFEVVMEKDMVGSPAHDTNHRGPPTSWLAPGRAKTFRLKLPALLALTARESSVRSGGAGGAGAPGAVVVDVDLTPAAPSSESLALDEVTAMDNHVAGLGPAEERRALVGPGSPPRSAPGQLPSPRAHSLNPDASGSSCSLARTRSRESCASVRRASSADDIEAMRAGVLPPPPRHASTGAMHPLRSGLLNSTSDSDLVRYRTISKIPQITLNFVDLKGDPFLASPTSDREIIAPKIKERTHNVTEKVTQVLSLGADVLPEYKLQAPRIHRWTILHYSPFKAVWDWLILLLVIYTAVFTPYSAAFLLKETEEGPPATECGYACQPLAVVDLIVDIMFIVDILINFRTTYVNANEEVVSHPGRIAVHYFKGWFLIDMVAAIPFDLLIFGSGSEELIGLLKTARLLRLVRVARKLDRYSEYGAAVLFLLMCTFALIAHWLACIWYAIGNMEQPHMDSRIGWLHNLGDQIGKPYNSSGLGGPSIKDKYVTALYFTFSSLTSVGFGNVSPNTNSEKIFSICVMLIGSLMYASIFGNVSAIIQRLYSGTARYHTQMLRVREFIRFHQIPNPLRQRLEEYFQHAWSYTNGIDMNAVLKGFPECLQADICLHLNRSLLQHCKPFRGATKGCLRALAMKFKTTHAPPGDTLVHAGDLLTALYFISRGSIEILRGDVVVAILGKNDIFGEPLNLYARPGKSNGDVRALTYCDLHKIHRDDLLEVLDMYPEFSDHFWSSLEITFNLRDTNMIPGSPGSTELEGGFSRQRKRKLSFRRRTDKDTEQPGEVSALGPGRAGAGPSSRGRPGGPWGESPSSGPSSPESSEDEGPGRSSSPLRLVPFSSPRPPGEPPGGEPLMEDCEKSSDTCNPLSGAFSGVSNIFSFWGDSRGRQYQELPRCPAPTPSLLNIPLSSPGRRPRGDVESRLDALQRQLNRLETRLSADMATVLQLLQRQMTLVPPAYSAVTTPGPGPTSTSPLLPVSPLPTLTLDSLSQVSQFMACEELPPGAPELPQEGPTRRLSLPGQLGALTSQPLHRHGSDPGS

| SMILES | hERG current change (%, negative = inhibition) at 10uM |
| --- | --- |
| COc1ccc(C(=O)Nc2ccc(F)cc2F)cc1OC | 12% |
| O=C(COc1cccnc1[N+](=O)[O-])NC1CCS(=O)(=O)C1 (stereo not drawn) | 4.72% |
| COc1cc(C(=O)N2CCN(c3ccccn3)CC2)cc(OC)c1OC | 9.53% |
| CC(=O)Nc1ccc(NC(=O)CSc2nnnn2-c2ccc3c(c2)OCCO3)cc1 | 6.03% |
| CC(C)=CCN1CCN(Cc2cnc(N3CCOCC3)s2)CC1CCO (stereo not drawn) | 10.7% |
| O=C(COC(=O)c1ccc(S(=O)(=O)N2CCCC2)cc1)NCc1ccc(F)cc1 | 0.966% |
| COc1ccc(/C=N/NC(=O)c2ccncc2)cc1[N+](=O)[O-] | -8.42% |
| CC(Cc1ccc(Cl)cc1)N1CCC(n2nccc2NC(=O)C2CCCC2)CC1 (stereo not drawn) | -76.3% |
| COc1ccc(NC(=O)C2=CC(c3ccco3)=NS(=O)(=O)N2C)cc1 | 0.0772% |
| Cc1cc(=O)oc2cc(OCC(=O)N3CCC(O)CC3)c(Cl)cc12 | 1.9% |
| COc1ccc(C(=O)Nc2ccc(Cl)cc2C(=O)N2CCCC(C)C2)cc1OC (stereo not drawn) | -21.1% |
| CN1CCN(C(=S)c2cn(Cc3cccc(F)c3)c3ccccc23)CC1 | 5.12% |
| C/C(=N\NC(=O)c1cc(C(C)C)[nH]n1)c1ccco1 | -2.42% |
| CC(=O)c1ccc(OCC(=O)OCC(=O)Nc2sccc2C(N)=O)cc1 | 3.83% |
| COc1ccc2c(c1)OC[C@H]1[C@H]2N2C(=O)CN(CCc3c[nH]c4ccccc34)C(=O)[C@@]2(C)[C@H]1c1ccccc1 | 15.8% |
| CC(=O)OCCCNc1cc(Sc2ccc(C)cc2)c2nonc2c1[N+](=O)[O-] | 7.29% |
| Cc1ccc(C(=O)N2CCNC(=O)C2CC(=O)Nc2ccc(F)cc2)cc1C (stereo not drawn) | 11.4% |
| CCc1ccc(C(=O)OCC(=O)NCC(F)(F)F)cc1 | 28% |
| COc1ccccc1Nc1nc(NCCCCO)nc(N2CCCC2)n1 | -42.5% |
| CCC(=O)Nc1nnc(/C=C/c2ccc(OC)cc2)s1 | 11% |
| Cc1ccc(C(=O)Nc2cccc3ccccc23)o1 | 4.82% |
| CC(=O)Nc1ccc(S(=O)(=O)Nc2nc3ccccc3nc2Nc2ccc(N)cc2)cc1 | 22.2% |

| SMILES | hERG current change (%, negative = inhibition) at 10uM |
| --- | --- |
| CC(=O)Nc1ccc(SCC(=O)c2cc(C)ccc2C)cc1 | -4.11% |
| Cc1c(Cl)c(C(=O)Nc2nc3ccccc3n2CCN2CCCCC2)nn1C | -68.1% |
| Cc1ccc(S(=O)(=O)N2CCCN(C(C)c3nc4ccccc4c(=O)[nH]3)CC2)cc1 (stereo not drawn) | -25.6% |
| O=C(Nc1ccccc1Cl)/C(Cl)=C(\Cl)S(=O)c1ccccc1 (stereo not drawn) | -6.94% |
| CS(=O)(=O)N(CC(=O)NCc1ccco1)Cc1ccc(Cl)cc1 | -18.4% |
| Cc1cc(=O)[nH]c(-c2cccs2)n1 | 8.78% |
| CCCCOc1ccc(N(CC(=O)NCc2ccco2)C(=O)CCC(=O)Nc2nccs2)cc1 | 17% |
| CCn1cc(CN(C)S(=O)(=O)c2cccc([N+](=O)[O-])c2)cn1 | -28.8% |
| COc1ccc(CNC(=O)C/C(C)=N/NC(=O)c2cc(OC)cc(OC)c2)cc1 | 5.35% |
| CCNc1cc(O)ccc1C | 4.55% |
| O=C(N/N=C/c1ccccc1)c1[nH]c2ccc(Br)cc2c1-c1ccccc1 | 25.8% |
| C=C(C)c1cccc(C(C)(C)NC(=O)Nc2nncs2)c1 | -2.12% |
| O=C(CC1SC(=Nc2cccc3ccccc23)N(Cc2ccccn2)C1=O)Nc1ccccc1Br (stereo not drawn) | 22.3% |
| COc1ccc(NC(=O)N/C=C/c2ccccc2)cc1 | 35.6% |
| CCn1c(-c2cc3c(C(F)(F)F)nn(C)c3s2)n[nH]c1=S | 15.9% |
| CNC(=S)N/N=C/c1ccco1 | 7.77% |
| COc1cccc(CC(=O)OCC(=O)N(C)CC(=O)Nc2ccccc2Cl)c1 | 13.3% |
| COc1ccc(C2C(C(=O)NCc3ccccn3)c3ccccc3C(=O)N2C)cc1OC (stereo not drawn) | 17.9% |
| Cc1cc(C(=O)CSc2nncs2)c(C)n1Cc1ccco1 | -11.8% |
| CCCc1cc(=O)n2[nH]c(C)c(-c3ccccc3)c2n1 | -8.47% |
| CCCCOc1ccc(C2OC34CCCCC3C(C#N)(C#N)C2(C#N)C(=N)O4)cc1 (stereo not drawn) | 6.36% |
| CC(=O)c1cccc(NC(=O)c2csc(-n3nc(C)cc3C(F)(F)F)n2)c1 | 4.79% |

| SMILES | hERG current change (%, negative = inhibition) at 10uM |
| --- | --- |
| Cn1cccc1Cc1nnc(SCC(=O)Nc2ccccc2F)n1-c1ccc(F)cc1 | -17.4% |
| COc1ccccc1Oc1ccc(N/C=C/C(=O)c2ccco2)cc1 | 43.9% |
| Cc1ccc(NC(=O)COC(=O)COc2ccc(Cl)cc2)c([N+](=O)[O-])c1 | 9.17% |
| COc1cc2c(cc1OC)CN(C(=O)CSc1ccc(F)cc1)CC2 | 11.2% |
| O=C(N/N=C1\CCCc2ccccc21)c1ccc([N+](=O)[O-])cc1Cl | -3.01% |
| Cc1ccc(N=C(NO)c2nonc2N)cc1 | 10.1% |
| O=S(=O)(c1ccc(Cl)cc1)N1CCC(c2nc3ccccc3[nH]2)CC1 | 1.05% |
| COc1cc2c(cc1OC)CN(CC(=O)Nc1ccc(C)cc1)CC2 | -16.4% |
| COc1ccccc1NS(=O)(=O)c1ccc(O)c(C(=O)OCC(=O)N2c3ccccc3CC2C)c1 (stereo not drawn) | -9.57% |
| COc1cc2[nH]c3c(=O)n(CCN4CCCCC4)cnc3c2cc1OC | 6.02% |
| COC(=O)c1ccccc1NC(=O)CN1CCC(NC(=O)c2ccc(C)cc2)CC1 | 8.67% |
| Cc1ccc(OCC(=O)Nc2ccc3c(c2)nc(CCN2CCC(C)CC2)n3C)cc1 | -70.6% |
| COC(=O)c1ccccc1NC(=O)CSc1nccc(C)n1 | 9.31% |
| COc1ccc(NC(=O)c2cc(CC(C)C)nc3ccccc23)cc1 | 10.8% |
| Cc1cc(C)c(NC(=O)Cn2nc(-c3ccccc3)nc2-c2ccccc2)c(C)c1 | -18.3% |
| Cc1cc(=S)c2cccc(C)c2[nH]1 | 9.4% |
| O=C1N/C(=C/c2ccsc2)C(=O)N1c1ccccc1 | -2% |
| O=C(NCCOC12CC3CC(CC(C3)C1)C2)c1cccc(Br)c1 | 1.8% |
| O=C1NC(=O)[C@@H]2C3c4ccccc4C=CN3[C@H](C(=O)c3cccs3)[C@H]12 (stereo partly drawn) | 7.35% |
| COc1cc(SC)ccc1C(=O)OC1CCOC1=O (stereo not drawn) | 4.34% |
| COc1cccc(CNC(=O)[C@H](CC(C)C)NC(=O)N2CCn3c2nc2ccccc23)c1 | -13.3% |
| Cc1oc(-c2cccc(Cl)c2)nc1CN1CCCC(C(=O)NCCCN2CCOCC2)C1 (stereo not drawn) | -28.1% |

| SMILES | hERG current change (%, negative = inhibition) at 10uM |
| --- | --- |
| O=C(CSc1nc2ccccc2s1)N/N=C/c1ccccc1C(=O)O | 30.5% |
| CC(OC(=O)c1cc(=O)[nH]c2ccccc12)C(=O)Nc1ccc(Cl)cn1 (stereo not drawn) | 1.32% |
| CCOc1ccc(N(CC(=O)NCCSCc2ccccc2)S(C)(=O)=O)cc1 | 3.59% |
| CCOc1ccc(CCNC(=O)c2nnn(CC(=O)Nc3ccccc3C)c2N)cc1OCC | 12.4% |
| O=C(NC1CCCC1)c1ccc2c(c1)S(=O)(=O)c1ccccc1C2=O | -11.2% |
| O=C(COC(=O)c1cccnc1Cl)Nc1cc(S(=O)(=O)N2CCOCC2)ccc1Cl | -24.5% |
| Cn1c(C(C(=O)NCC2CCCO2)N(CCc2ccccc2)C(=O)Cn2nnc3ccccc32)nc2ccccc21 (stereo not drawn) | -1.42% |
| CCN1CCN(CC(=O)Nc2cccc(C)c2C)C(=O)C1=O | 4.06% |
| CCc1cc(C(c2ccccc2OC)N2CCOCC2)c(NC(=O)c2ccccc2)s1 (stereo not drawn) | 21.3% |
| CCOC(=O)c1c(NC(=O)CN2C(=O)NC3(CCC(C)CC3)C2=O)sc(C)c1-c1ccc(C)cc1 (stereo not drawn) | -3.59% |
| Cc1cc(NCCN)nc2ccccc12.O=[N+]([O-])O | 11.1% |
| O=C(Cc1ccccc1)NC1CCN(C(=O)NCc2ccccc2)CC1 | -11.2% |
| COc1ccc(-c2c[n+](CC(=O)c3cccs3)c3n2CCC3)cc1.[Br-] | 10.4% |
| CC(C)CCN(C(=O)Cc1ccccc1F)c1c(N)n(Cc2ccccc2)c(=O)[nH]c1=O | 13.1% |
| N#C/C(=C(/O)COC(=O)c1ccc(Cl)c(S(=O)(=O)N2CCOCC2)c1)c1nc2ccccc2[nH]1 | -0.927% |
| CCOC(=O)N1CCN(C(=O)c2cccc(OC)c2OC)CC1 | -0.263% |
| COc1ccc(OCC(=O)NNC(=O)Nc2cccc(Cl)c2)cc1 | 32% |
| O=c1n(Cc2ccccc2)nc2n1-c1ccccc1SC2 | -5.34% |
| CSCCC(NS(=O)(=O)c1ccc(Cl)cc1)C(=O)OCC(=O)N1CCCc2ccccc21 (stereo not drawn) | -5.26% |
| CCc1nnc(NC(=O)CN2CCN(S(C)(=O)=O)CC2)s1 | -2.78% |
| O=C(CSc1nnc(CNC(=O)c2ccco2)o1)Nc1nc2ccccc2s1 | 16.1% |
